Test results: the supplement of paper PMC12217912
The other results are listed elsewhere or left out. The full chains were built here from the parent and the listed change. Values near 0.05 are background.

B1: TEV protease; numbered along this chain (parent)
chain: MGESLFKGPRDYNPISSSICHLTNESDGHTTSLYGIGFGPFIITNKHLFRRNNGTLVVQSLHGVFKVKDTTTLQQHLVDGRDMIIIRMPKDFPPFPQKLKFREPQREERICLVTTNFQTKSMSSMVSDTSCTFPSGDGIFWKHWIQTKDGQCGSPLVSTRDGFIVGIHSASNFTNTNNYFTSVPKNFMELLTNQEAQQWVSGWRLNADSVLWGGHKVFMVKPEEPFQPVKEATQL

Variants of: B1
Experiment: raw area under fraction-flipped curve 0-4 h after induction (AUC4h, not background-subtracted), DNA-recorder readout of cleavage of the substrate (dimensionless); higher = more cleavage of the substrate by the protease variant
Conditions: temperature: 34 °C; time window: 0-4 h after rhamnose induction
Procedure: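 In vivo DNA recorder in E. coli TOP10(DE3) ΔrhaA at 34 °C. Each TEVp single-site mutant (parent TEVp 0) is paired with a single-site variant of the 7-mer TEVs (canonical ENLYFQ|S). The substrate sits between flexible linkers in a Bxb1-sfGFP-TEVs-SsrA fusion, so cleavage stabilises Bxb1 and speeds flipping of a recombination array, read by NGS. The value is the raw area under the fraction-flipped curve over 0-4 h after rhamnose induction (AUC4h), with ≥20 reads per time point. It is not background-subtracted; inactive controls average about 0.047.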
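Further: Bxb1 expression induced with 0.2% (w/v) L-rhamnose at OD600 near 0.5, cultures sampled hourly, flipped fraction per protease–substrate barcode pair counted by paired-end Illumina sequencing.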

Row | Variant | area with substrate ENLYFAS | area with substrate ENLYFCS | area with substrate ENLYFES | area with substrate ENLYFFS | area with substrate ENLYFIS | area with substrate ENLYFKS | area with substrate ENLYFLS | area with substrate ENLYFMS | area with substrate ENLYFNS | area with substrate ENLYFPS | area with substrate ENLYFRS | area with substrate ENLYFSS | area with substrate ENLYFTS | area with substrate ENLYFVS | area with substrate ENLYFWS | area with substrate ENLYFYS | area with substrate ENLYFDS | area with substrate ENLYFGS | area with substrate ENLYFHS
1 | MGESLFKGPRFYNPISSSICHLTNESDGHTTSLYGIGFGPFIITNKHLFRRNNGTLVVQSLHGVFKVKDTTTLQQHLVDGRDMIIIRMPKDFPPFPQKLKFREPQREERICLVTTNFQTKSMSSMVSDTSCTFPSGDGIFWKHWIQTKDGQCGSPLVSTRDGFIVGIHSASNFTNTNNYFTSVPKNFMELLTNQEAQQWVSGWRLNADSVLWGGHKVFMVKPEEPFQPVKEATQL [D11F] | 0.0482 | 0.0475 | 0.0585 | 0.0796 | 0.0586 | 0.0591 | 0.0833 | 0.0804 | 0.0628 | 0.0645 | 0.0621 | 0.0514 | 0.0785 | 0.0518 | 0.0695 | 0.0466 |  |  | 
2 | MGESLFKGPRPYNPISSSICHLTNESDGHTTSLYGIGFGPFIITNKHLFRRNNGTLVVQSLHGVFKVKDTTTLQQHLVDGRDMIIIRMPKDFPPFPQKLKFREPQREERICLVTTNFQTKSMSSMVSDTSCTFPSGDGIFWKHWIQTKDGQCGSPLVSTRDGFIVGIHSASNFTNTNNYFTSVPKNFMELLTNQEAQQWVSGWRLNADSVLWGGHKVFMVKPEEPFQPVKEATQL [D11P] | 0.06 |  | 0.0608 | 0.0686 | 0.0572 | 0.0675 | 0.0527 | 0.0587 | 0.0646 | 0.0419 |  | 0.0548 | 0.0581 |  | 0.0589 | 0.0668 | 0.0712 | 0.0558 | 0.0512
3 | MGESPFKGPRDYNPISSSICHLTNESDGHTTSLYGIGFGPFIITNKHLFRRNNGTLVVQSLHGVFKVKDTTTLQQHLVDGRDMIIIRMPKDFPPFPQKLKFREPQREERICLVTTNFQTKSMSSMVSDTSCTFPSGDGIFWKHWIQTKDGQCGSPLVSTRDGFIVGIHSASNFTNTNNYFTSVPKNFMELLTNQEAQQWVSGWRLNADSVLWGGHKVFMVKPEEPFQPVKEATQL [L5P] | 0.0601 |  |  |  | 0.0693 |  |  | 0.0712 |  |  |  | 0.0642 |  |  |  |  | 0.0451 |  | 
4 | MGESLFKGRRDYNPISSSICHLTNESDGHTTSLYGIGFGPFIITNKHLFRRNNGTLVVQSLHGVFKVKDTTTLQQHLVDGRDMIIIRMPKDFPPFPQKLKFREPQREERICLVTTNFQTKSMSSMVSDTSCTFPSGDGIFWKHWIQTKDGQCGSPLVSTRDGFIVGIHSASNFTNTNNYFTSVPKNFMELLTNQEAQQWVSGWRLNADSVLWGGHKVFMVKPEEPFQPVKEATQL [P9R] | 0.0651 | 0.0497 | 0.0627 |  | 0.0517 | 0.0479 |  | 0.0809 | 0.0643 | 0.0377 |  |  | 0.0498 |  |  |  |  | 0.043 | 
5 | MGFSLFKGPRDYNPISSSICHLTNESDGHTTSLYGIGFGPFIITNKHLFRRNNGTLVVQSLHGVFKVKDTTTLQQHLVDGRDMIIIRMPKDFPPFPQKLKFREPQREERICLVTTNFQTKSMSSMVSDTSCTFPSGDGIFWKHWIQTKDGQCGSPLVSTRDGFIVGIHSASNFTNTNNYFTSVPKNFMELLTNQEAQQWVSGWRLNADSVLWGGHKVFMVKPEEPFQPVKEATQL [E3F] | 0.06 |  |  | 0.0516 |  | 0.0534 |  | 0.0707 | 0.0591 | 0.0652 |  |  | 0.0442 |  | 0.0531 |  | 0.0991 |  | 
6 | MGRSLFKGPRDYNPISSSICHLTNESDGHTTSLYGIGFGPFIITNKHLFRRNNGTLVVQSLHGVFKVKDTTTLQQHLVDGRDMIIIRMPKDFPPFPQKLKFREPQREERICLVTTNFQTKSMSSMVSDTSCTFPSGDGIFWKHWIQTKDGQCGSPLVSTRDGFIVGIHSASNFTNTNNYFTSVPKNFMELLTNQEAQQWVSGWRLNADSVLWGGHKVFMVKPEEPFQPVKEATQL [E3R] | 0.0622 | 0.0631 |  | 0.0358 | 0.05 | 0.0594 | 0.0712 | 0.0627 | 0.0677 | 0.0574 |  | 0.0533 |  |  |  | 0.0506 | 0.0735 |  | 0.0575
7 | MGCSLFKGPRDYNPISSSICHLTNESDGHTTSLYGIGFGPFIITNKHLFRRNNGTLVVQSLHGVFKVKDTTTLQQHLVDGRDMIIIRMPKDFPPFPQKLKFREPQREERICLVTTNFQTKSMSSMVSDTSCTFPSGDGIFWKHWIQTKDGQCGSPLVSTRDGFIVGIHSASNFTNTNNYFTSVPKNFMELLTNQEAQQWVSGWRLNADSVLWGGHKVFMVKPEEPFQPVKEATQL [E3C] | 0.0637 |  | 0.0573 | 0.0748 | 0.0607 | 0.0725 |  | 0.058 | 0.0891 | 0.0451 | 0.058 |  |  | 0.0548 |  | 0.0444 |  | 0.0398 | 0.0678
8 | MGESLFKGPDDYNPISSSICHLTNESDGHTTSLYGIGFGPFIITNKHLFRRNNGTLVVQSLHGVFKVKDTTTLQQHLVDGRDMIIIRMPKDFPPFPQKLKFREPQREERICLVTTNFQTKSMSSMVSDTSCTFPSGDGIFWKHWIQTKDGQCGSPLVSTRDGFIVGIHSASNFTNTNNYFTSVPKNFMELLTNQEAQQWVSGWRLNADSVLWGGHKVFMVKPEEPFQPVKEATQL [R10D] | 0.0663 | 0.0609 | 0.0647 | 0.0812 | 0.0532 | 0.0675 | 0.0323 |  | 0.0471 | 0.0599 | 0.0486 | 0.0572 | 0.0553 | 0.0616 |  | 0.0518 | 0.0633 |  | 0.0532
9 | MGESLFKGPWDYNPISSSICHLTNESDGHTTSLYGIGFGPFIITNKHLFRRNNGTLVVQSLHGVFKVKDTTTLQQHLVDGRDMIIIRMPKDFPPFPQKLKFREPQREERICLVTTNFQTKSMSSMVSDTSCTFPSGDGIFWKHWIQTKDGQCGSPLVSTRDGFIVGIHSASNFTNTNNYFTSVPKNFMELLTNQEAQQWVSGWRLNADSVLWGGHKVFMVKPEEPFQPVKEATQL [R10W] | 0.0495 | 0.0853 |  | 0.0503 | 0.0526 | 0.0606 | 0.0576 | 0.0684 | 0.0757 | 0.057 | 0.0696 | 0.0555 | 0.0588 | 0.0689 |  | 0.0484 |  | 0.0738 | 0.043
